Sequences with one replicate were seen in a single cluster, so their values are uncertain.

This data set deals with ATP. Kind of data set: switch fluorescence ratio, 500 uM ATP over buffer (Cy3 cluster intensity, sum of 5 cycles each) (fold (ratio)); higher = stronger signal-on switching upon ATP binding; sequences stand for … in TCGTCGGCAGCGTCAGATGTGTATAAGAGACAGTTTTTTTTTTTTTTTTTTTTTTTTT…TC. As to conditions: aptamer strand: ATP DNA aptamer (quencher-CACCTGGGGGAGTATTGCGGAGGAAGG + anchor), 100 nM annealed; ATP concentration: 500 uM; one replicate. Summed up: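 The quencher-labelled ATP aptamer, at 100 nM, was annealed to Cy3-labelled switching-strand clusters on a modified Illumina MiSeq flow-cell. The clusters were imaged in selection buffer, then after 15 min with 500 uM ATP at 22 °C, and this buffer/ATP cycle ran five times with NaOH stripping and re-annealing between runs. Per-cluster fluorescence ratios, summed target-cycle over summed buffer-cycle Cy3 intensity, were averaged per switch-domain sequence. Clusters outside 100-1000 RFU were excluded.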
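Note: ATP exposure 15 min at 22 °C before imaging.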

For the sequence AGCCGGCCGC, the switch fluorescence ratio was found to be 0.983.
Turning to GCAGGGCGAT, the switch fluorescence ratio is 1.02.
Consider CTTGTTGGTT, for which the switch fluorescence ratio amounted to 1.02.
Consider AAGTAGGATC, for which the switch fluorescence ratio was 0.948.
For the sequence TCGGCGCAT, the switch fluorescence ratio was 1.73.
Take AAAAAGTACT: the switch fluorescence ratio was found to be 1.07.
Take CATGCTTATG: the switch fluorescence ratio was determined as 0.984.
CTCACACTCC: the switch fluorescence ratio amounted to 1.7.
Turning to TCCACGGGAC, the switch fluorescence ratio came to 1.35.
As for GGCAGTGGAT, the switch fluorescence ratio is 0.964.
The figure for AAAGCTACA is 1.11.
The figure for GGGGAGCTGG is 0.949; for TTCACGAAAA it is 1.15.
With CGGGGAGTTG, the switch fluorescence ratio was 1.07.
ACTTTTTC: the switch fluorescence ratio was found to be 1.03.
For CCAAGTTGAT, the switch fluorescence ratio turned out to be 1.03.
GCGCACATCA: the switch fluorescence ratio was determined as 1.04.
Regarding GCATGGTTGT, the switch fluorescence ratio was 0.963.
For TGTGGGTTAG the value was 1; for AGCCGCTGAA, 1.1.
Turning to CAAGCACCCA, the switch fluorescence ratio stood at 1.14.
For ATGGCCTGCA, the switch fluorescence ratio was 1.03.
As to TCGTGGTGCG, the switch fluorescence ratio is 0.969.
For AGTTATTCC, the switch fluorescence ratio is 1.18.
Regarding GATGACATGA, the switch fluorescence ratio turned out to be 1.02.
As to CGGAGATAAA, the switch fluorescence ratio was determined as 1.01.
For the sequence GCGCACCATT, the switch fluorescence ratio was 0.968.
CGTGCGCAGT: the switch fluorescence ratio was found to be 2.08.
For GAAATGTCGT, the switch fluorescence ratio was 1.04.
Turning to ATCTTCTTTA, the switch fluorescence ratio is 0.955.
Regarding CAGGATTAGT, the switch fluorescence ratio was found to be 0.992.
With CATAGATCCA, the switch fluorescence ratio was found to be 1.02.
The figure for CGTTAGTTAA is 0.991; for GCCAAGGGGA it is 1; for CTATCACTGT it is 0.993.
Turning to TATCGGCTCG, the switch fluorescence ratio is 0.983.
Regarding TTGTGTTCC, the switch fluorescence ratio is 1.07.
For the sequence GACCCGGTAC, the switch fluorescence ratio was found to be 2.27.
With GGAACGATTG, the switch fluorescence ratio came to 0.972.
CTAAGTTTAT: the switch fluorescence ratio amounted to 0.96.
TGCCGGAGAA: the switch fluorescence ratio is 1.01.
TTAAGTGCAA: the switch fluorescence ratio stood at 1.05.
Consider GGGAAAATAA, for which the switch fluorescence ratio was found to be 0.992.
For the sequence TCCCGTTGCG, the switch fluorescence ratio was 1.02.
For TTTCGGTGGG, the switch fluorescence ratio was 1.05.
The figure for GGCGTATCAA is 1.01; for CCGAGATGCT it is 1.96.
Turning to GCGAACGGCC, the switch fluorescence ratio worked out at 1.03.
Take GGCCCTGATG: the switch fluorescence ratio was 1.03.
Take TCGCCGTGCT: the switch fluorescence ratio is 1.04.
For TGGGTCAGAA the value was 0.958.
With AAGATCGTGT, the switch fluorescence ratio came to 0.984.
With TCGTCACTGC, the switch fluorescence ratio was 0.986.
For the sequence AACAGGAAAG, the switch fluorescence ratio is 1.02.
Regarding CTGAGGTATC, the switch fluorescence ratio was found to be 1.02.
As to CGTTAGCGGC, the switch fluorescence ratio was determined as 1.03.
For GCTCACTGAC, the switch fluorescence ratio is 1.77.
As for GCGGCCGTAG, the switch fluorescence ratio turned out to be 1.06.
Take AGTTCATACA: the switch fluorescence ratio stood at 1.03.
For CTAGTTAATT the value was 0.961; for CCACTGTACA, 1.56; for ATGTAGTCCG, 0.993.
As for CTCCAAGTGG, the switch fluorescence ratio amounted to 1.01.
As to TTCTGGTCAC, the switch fluorescence ratio is 1.22.
As for GACCCTTATA, the switch fluorescence ratio came out at 1.07.
As for GTATACCGCT, the switch fluorescence ratio turned out to be 1.05.
The figure for TAAATAACGA is 0.989; for CTTCGGGCGT it is 1.03.
For GAATTAGAA the value was 1.02; for TCGTCACTCT, 0.995; for AGAGGAACCG, 0.984.
Take CGGCTATCAT: the switch fluorescence ratio worked out at 0.966.
Consider ATTTTGCATC, for which the switch fluorescence ratio was 0.971.
For the sequence ACGCTCTCTC, the switch fluorescence ratio was 1.31.
CCTTCGTGTT: the switch fluorescence ratio stood at 3.26.
As for GGAATCGTCA, the switch fluorescence ratio was 0.984.
Take AATTTCTAGA: the switch fluorescence ratio is 0.969.
In the case of TTGGAGAAGT, the switch fluorescence ratio was 0.938.
On to TAGATGTGTG, for which the switch fluorescence ratio turned out to be 0.994.
For ATGATAATTG the value was 1; for ACCCATTTGA, 1.29.
For CTTAGGTCTG the value was 1; for TGAAAGTGTG, 0.964; for TAAACATCAT, 0.996.
Consider TAGTAAGCGC, for which the switch fluorescence ratio is 0.952.
As for AAAATTAGCT, the switch fluorescence ratio is 1.03.
As to AAACACGTCT, the switch fluorescence ratio worked out at 1.02.
GTCATTCATG: the switch fluorescence ratio stood at 0.945.
As for CGGGTTCTGT, the switch fluorescence ratio amounted to 0.999.
Turning to CAAGCGTGGG, the switch fluorescence ratio was 0.934.
Consider CCAAAACAGG, for which the switch fluorescence ratio was 1.08.
Regarding CATATAGGTG, the switch fluorescence ratio worked out at 1.11.
Take TAGCGTGTCG: the switch fluorescence ratio was found to be 0.969.
As for ATATATGTTG, the switch fluorescence ratio came to 0.991.
Turning to TCACTTTTCA, the switch fluorescence ratio amounted to 0.993.
Take TCAGTCGATA: the switch fluorescence ratio worked out at 1.02.
On to GGGTAGGCCC, for which the switch fluorescence ratio was determined as 1.01.
On to GCTGAACGGG, for which the switch fluorescence ratio was 0.984.
ATGCAAGAAA: the switch fluorescence ratio worked out at 0.976.
AGATACCGCC: the switch fluorescence ratio stood at 1.22.
ATCGGCTGGA: the switch fluorescence ratio came out at 1.02.
Consider GCATAGGTGT, for which the switch fluorescence ratio amounted to 1.39.
For ACAAGTGGAA the value was 1.01; for CTCGGGTCT, 1.01; for CCAAGGATAT, 1.09.
For ATACGGACAG, the switch fluorescence ratio turned out to be 1.31.
Regarding GGAAACCCAT, the switch fluorescence ratio is 1.01.
The figure for TATAAGAGAT is 1.07; for AGCCTGAACG it is 1.03; for TGGTTGTAGC it is 1.
Consider CTGCTCCGCG, for which the switch fluorescence ratio was 2.78.
Turning to TGGGCAACGT, the switch fluorescence ratio was determined as 1.03.
With GACGTATGCC, the switch fluorescence ratio amounted to 1.05.
As to CAACATTC, the switch fluorescence ratio came out at 1.
In the case of GGTGTCGCGG, the switch fluorescence ratio was determined as 0.996.
In the case of TGCTTATACT, the switch fluorescence ratio stood at 1.2.
The figure for TGAACACGCT is 1.02; for GATGATTTAG it is 0.997; for GGTTACTTA it is 1.04.
On to GTAGTGTGAG, for which the switch fluorescence ratio amounted to 0.978.

The values above are taken from the supplement of paper PMC10126150.
